According to paper PMC10726135:
This is one part of the list. At the low end of the ranking, values are background and their order means little. Measured with an extract: partners may take part in the binding.

Molecular target: T1, HNF4alpha8 (COS-7 nuclear extract) (UniProt P41235-5)
T1 sequence: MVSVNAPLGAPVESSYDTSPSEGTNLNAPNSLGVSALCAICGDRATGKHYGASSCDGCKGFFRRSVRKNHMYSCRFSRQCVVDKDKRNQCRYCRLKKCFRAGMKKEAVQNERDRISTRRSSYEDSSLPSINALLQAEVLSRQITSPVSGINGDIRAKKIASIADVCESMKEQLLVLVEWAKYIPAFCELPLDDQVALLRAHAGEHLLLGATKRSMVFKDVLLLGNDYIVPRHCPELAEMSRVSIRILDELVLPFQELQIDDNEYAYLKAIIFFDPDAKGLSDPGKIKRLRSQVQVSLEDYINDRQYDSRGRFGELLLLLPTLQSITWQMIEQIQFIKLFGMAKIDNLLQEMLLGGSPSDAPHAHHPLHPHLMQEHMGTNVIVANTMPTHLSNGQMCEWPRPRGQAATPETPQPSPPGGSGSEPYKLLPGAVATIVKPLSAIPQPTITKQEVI
Test: protein-binding microarray
Settings: COS-7 nuclear extract on double-stranded Agilent 4x180k PBM; binding buffer, salt, pH and temperature not given; high values mean tight binding; double strand, one strand shown; sequences stand for … in …GCCTAGGGAGATTAGAGTATCGGTCGA

**Q.** AGCTGAGCAGAGAGGACCCTGTGATCATAT was tested. Which binding signal (log2 normalized intensity) did it give?
**A.** 1.31

**Q.** Which binding signal (log2 normalized intensity) does the source give for GCAGCCAGTTCTGGACGGCAGATGCAGAGT here?
**A.** -1.25

**Q.** Which binding signal (log2 normalized intensity) does the source give for CCCTAGGAAGGATAAGAGCAAGAAACAGCA here?
**A.** -1.39

**Q.** Which binding signal (log2 normalized intensity) does the source give for GAAGACCAAAGTTCTTATTTGCTGAGGAAG here?
**A.** 0.382

**Q.** How did the binding signal (log2 normalized intensity) turn out when GGAAGGGTATGCATGGAATGCAGGAGATCC was run?
**A.** -1.07

**Q.** For AACATCATAGAGTGTACTTATGCAGACCTG, which binding signal (log2 normalized intensity) is on record?
**A.** 0.968

**Q.** For TGTTCACTCTAGGAACTTGTCTAAAAACAT, which binding signal (log2 normalized intensity) is on record?
**A.** -1.36

**Q.** GGCCCAGCTGGTTTGAAGAATGTGGTCTGG was tested. Which binding signal (log2 normalized intensity) did it give?
**A.** 1.25

**Q.** For TGACCTTTGCTCCAGTTCCCAATAATTTCC, which binding signal (log2 normalized intensity) is on record?
**A.** 5.13

**Q.** For AAATGAAGCAACACTTTCTGACCTTTAAGC, which binding signal (log2 normalized intensity) is on record?
**A.** 5.45

**Q.** Which binding signal (log2 normalized intensity) does the source give for AATCACACTAATCTGTCAGAAAACCCACGC here?
**A.** -0.993

**Q.** With AAGGGCAAGTGACTGATAAGGCTAAGTGGA as the sequence, how does the binding signal (log2 normalized intensity) read?
**A.** -1.35

**Q.** How did the binding signal (log2 normalized intensity) turn out when GCCAAGTTGAGGAGTTTGTACTTTATCCTA was run?
**A.** 4.03

**Q.** How did the binding signal (log2 normalized intensity) turn out when CACTCTACTCTCTTTGGAGTGCTCCCGCCT was run?
**A.** 1.03

**Q.** Which binding signal (log2 normalized intensity) does the source give for AGTGAAGGTTCAGTGAAGTAGTGTGTATGA here?
**A.** 1.82

**Q.** How did the binding signal (log2 normalized intensity) turn out when GGCCTCCACACATTGCCACACTATTTACAC was run?
**A.** -0.502

**Q.** Which binding signal (log2 normalized intensity) does the source give for GGACTTCTCTGCCCTCTTCCCTCTACCTCT here?
**A.** 1.97

**Q.** How did the binding signal (log2 normalized intensity) turn out when ATCTAGGTGAGGGATGAGGACTTTGATCAG was run?
**A.** 6.79

**Q.** TGCTCTCAGCACACTCTGGTACCATGGATG was tested. Which binding signal (log2 normalized intensity) did it give?
**A.** 0.953

**Q.** CTAGCAAGTGCCAAGATGCTAAGGCAAGAT was tested. Which binding signal (log2 normalized intensity) did it give?
**A.** -1.24

**Q.** With GAGTTATCTTCCTCCCCCCTTGGCTACATG as the sequence, how does the binding signal (log2 normalized intensity) read?
**A.** 4.15

**Q.** AAATAAGGGAGGTAAAAGTCCAACAGGGTT was tested. Which binding signal (log2 normalized intensity) did it give?
**A.** 2.8

**Q.** For TTTAACTTTTGGGATCAGCAATGCTCAGCC, which binding signal (log2 normalized intensity) is on record?
**A.** -1.29

**Q.** Which binding signal (log2 normalized intensity) does the source give for AGACAAGGCACCAAAGGAATCTACATAACA here?
**A.** -1.44

**Q.** How did the binding signal (log2 normalized intensity) turn out when CCTACATTCCACCCTCATTTGCTTGACCCG was run?
**A.** 3.98

**Q.** Which binding signal (log2 normalized intensity) does the source give for CGGAAGCCTTCCCCGCCCGCAGCCCAGTCT here?
**A.** 3.88

**Q.** How did the binding signal (log2 normalized intensity) turn out when GCCAAATGACTCACTCAAGGCAGCTCAGCT was run?
**A.** -1.17

**Q.** Which binding signal (log2 normalized intensity) does the source give for GGTGGCCGAGCAGGACGCTACCCGCTTGGC here?
**A.** -1.31

**Q.** For ACATTCAGGACACTTCTGAAAAAAATATTG, which binding signal (log2 normalized intensity) is on record?
**A.** -1.3

**Q.** For CAGGGAGATTTCCTGGGAGAGAAAAGCAAG, which binding signal (log2 normalized intensity) is on record?
**A.** -1.41

**Q.** For CCTTTAGTCTCTAGCCCCGCCCAGATGTCT, which binding signal (log2 normalized intensity) is on record?
**A.** 4.07

**Q.** With GTTGTAGCAGTTCACACTCCCACCAGCATG as the sequence, how does the binding signal (log2 normalized intensity) read?
**A.** -1.3

**Q.** With AAGGCAATATCACTTGTTTGCACAAAGGGT as the sequence, how does the binding signal (log2 normalized intensity) read?
**A.** 0.594

**Q.** How did the binding signal (log2 normalized intensity) turn out when AGGACTTTGGACCGTCTTGTGGATCCTTGG was run?
**A.** 5.27

**Q.** How did the binding signal (log2 normalized intensity) turn out when CAGGTTGAGTCCAGCCTGTGGTGGGAAACT was run?
**A.** 0.358

**Q.** GCAGAGTTGGGCAGAAGGTGTTTCAGATGG was tested. Which binding signal (log2 normalized intensity) did it give?
**A.** 0.573

**Q.** Which binding signal (log2 normalized intensity) does the source give for TCTCTCGCGAGAGCCGAAGTCTCTCGCCGA here?
**A.** -1.27

**Q.** How did the binding signal (log2 normalized intensity) turn out when TGTTCTCTGTACGGAAGGCCGGGCCTCAAG was run?
**A.** -1.32

**Q.** Which binding signal (log2 normalized intensity) does the source give for GAGCAGGGTATCAGTTGAACAGAATAGAGG here?
**A.** -1.28

**Q.** Which binding signal (log2 normalized intensity) does the source give for TAAGGGTAGAGACCTTTGTTTTGTTTTCAA here?
**A.** 1.16

**Q.** How did the binding signal (log2 normalized intensity) turn out when AGTCTGAGGCTGCTCTCTGTCCCTGCACCC was run?
**A.** 1.69

**Q.** How did the binding signal (log2 normalized intensity) turn out when CGGGCGGGGGGTGGGGTGGAAGCTATGCCT was run?
**A.** -1.34

**Q.** For TAAGATATTGGTAAGTTAAGTAACTCTCCA, which binding signal (log2 normalized intensity) is on record?
**A.** -1.05

**Q.** CAACCATCAAAGGTCACTTTACAGATAAAG was tested. Which binding signal (log2 normalized intensity) did it give?
**A.** 3.01

**Q.** How did the binding signal (log2 normalized intensity) turn out when TGCAGTGTCCATGGTGACCATGTGATGTGA was run?
**A.** 1.26

**Q.** Which binding signal (log2 normalized intensity) does the source give for TCACCACTTCAAGCTTGGTATGCTTAAGTG here?
**A.** -0.327

**Q.** CCCTGCACCCTACCCCCATACTTTATTTAG was tested. Which binding signal (log2 normalized intensity) did it give?
**A.** 2.76

**Q.** How did the binding signal (log2 normalized intensity) turn out when ACGATGTGTAAACAAGTGAGCATGGCTGTG was run?
**A.** 0.481

**Q.** Which binding signal (log2 normalized intensity) does the source give for TGATTTATTCAGGCAATGTCACGTTTATTT here?
**A.** 0.812

**Q.** Which binding signal (log2 normalized intensity) does the source give for AGGGACCCTTCCTCGGTGGAGTTGACACAG here?
**A.** 0.938

**Q.** GAAATTCAGGCTGAGGTGCTCTCAGATAAG was tested. Which binding signal (log2 normalized intensity) did it give?
**A.** -1.02

**Q.** How did the binding signal (log2 normalized intensity) turn out when GACCCGAGTGCCCTTTGGCAAACAGGAGCT was run?
**A.** 2.19

**Q.** ACTAGGAGCCTGCACGCCTGTTCACATTCC was tested. Which binding signal (log2 normalized intensity) did it give?
**A.** -1.25

**Q.** For ACAATGTGAGCAGGTGTGTGGCATCTTGGG, which binding signal (log2 normalized intensity) is on record?
**A.** 0.622

**Q.** How did the binding signal (log2 normalized intensity) turn out when TTAGTGCATAACTTTTGAATCCTCTTTGAG was run?
**A.** -0.917

**Q.** GGAATGCTGAAGGGAAGGCTGCCGTCCTCA was tested. Which binding signal (log2 normalized intensity) did it give?
**A.** -1.32

**Q.** Which binding signal (log2 normalized intensity) does the source give for CATTTTGTCTTTTCTCCCCTGACTACCAGC here?
**A.** 2.34

**Q.** Which binding signal (log2 normalized intensity) does the source give for AGTTGGAGAAGAGCAAAGATCATCTGGTGG here?
**A.** 1.16

**Q.** For AAGCTGAATATTTATCAGATACAGGAGATC, which binding signal (log2 normalized intensity) is on record?
**A.** 0.82

**Q.** With CCCACTTGTATGTCCAAGGGTCACTCGACA as the sequence, how does the binding signal (log2 normalized intensity) read?
**A.** 4.12

**Q.** For ACAGGGCTGGGATAACCGAGGCTGACAGCA, which binding signal (log2 normalized intensity) is on record?
**A.** -1.32

**Q.** For AATGAGGACGTGTGTGTTCTGGACTTCTCT, which binding signal (log2 normalized intensity) is on record?
**A.** 2.4

**Q.** TTCGTTGAAAGCTGCTTCCCAGTTGCTCTG was tested. Which binding signal (log2 normalized intensity) did it give?
**A.** -1.13

**Q.** CCGAGGCCTTGAGCATACAAAACCCCTTAT was tested. Which binding signal (log2 normalized intensity) did it give?
**A.** 1.53

**Q.** How did the binding signal (log2 normalized intensity) turn out when GAAACACATTCTTAGACAACACACCACCTG was run?
**A.** -1.29

**Q.** For CATCTTCTTATCTGAGGTTTGACTTTGAGG, which binding signal (log2 normalized intensity) is on record?
**A.** 2.01

**Q.** With TGCGGTAATCCTTACGGCCCTGTGGTGTTC as the sequence, how does the binding signal (log2 normalized intensity) read?
**A.** 1.63

**Q.** With ACGTCTGTTAACCAAGATACTGGGTCAGAG as the sequence, how does the binding signal (log2 normalized intensity) read?
**A.** 0.44

**Q.** Which binding signal (log2 normalized intensity) does the source give for AGGAGTGTCTTTCTCCTTGAACACAGTGTT here?
**A.** 1.24

**Q.** GCCCTTTGACCTCTCTCTCCTAACTATGGT was tested. Which binding signal (log2 normalized intensity) did it give?
**A.** 6.06

**Q.** How did the binding signal (log2 normalized intensity) turn out when TGGTGAGTCAGTTCCCCTGCGGACTCTGGA was run?
**A.** 2.91

**Q.** ACTTATCAGAGGAAATTCAGATCAAAGCAA was tested. Which binding signal (log2 normalized intensity) did it give?
**A.** -1.27
